Results on 28 compounds are retold here after the antibiotic and cytotoxicity screens of Wong et al. (2023).

This is one part of the list.

This experiment relates to HSkMC (human skeletal muscle cells). Kind of experiment: cytotoxicity call (relative viability < 0.9). As to conditions: 10 µM.
With `CC(=O)n1cc([C@@H]2C=C(C(=O)N3CCN(Cc4ccccc4)CC3)O[C@H](OCc3ccc(CO)cc3)C2)c2ccccc21`, the cytotoxicity call is “inactive”.
The entry for `C[C@@H]1CN([C@H](C)CO)C(=O)Cc2cc(NS(C)(=O)=O)ccc2O[C@H]1CN(C)C` is “inactive”; for `O=C(C[C@@H]1C[C@@H]2c3cc(NC(=O)NC4CCCC4)ccc3O[C@@H]2[C@@H](CO)O1)NCc1ccc(Oc2ccccc2)cc1` it is “inactive”; for `COCC(=O)Nc1ccc2c(c1)OC[C@H](C)N(C(=O)c1ccccc1F)C[C@@H](C)[C@H](OC)CN(C)C2=O` it is “inactive”.
The entry for `C[C@@H]1O[C@H]2Oc3c(-c4ccc(O)c(O)c4)oc4cc(O)c(c(O)c4c3=O)-c3cc(ccc3O)/C=C\C(=O)OC[C@H]3O[C@@H](O[C@H]([C@H]1O)[C@H]2O)[C@H](O)[C@@H](O)[C@@H]3O` is “inactive”; for `C[C@@H]1CN([C@@H](C)CO)C(=O)c2cc(NC(=O)Nc3ccc4c(c3)OCO4)ccc2O[C@@H](C)CCCCO[C@@H]1CN(C)C(=O)Nc1ccccc1` it is “inactive”.
The entry for `C[C@@H]1CN([C@H](C)CO)C(=O)CCCn2nncc2CO[C@@H]1CN(C)S(=O)(=O)c1cccc(C#N)c1` is “inactive”; for `CCn1c2ccc(Cl)cc2c2cc(Cl)ccc21` it is “inactive”.
In the case of `C[N+]1(CCCCC[N+]2(C)CCCC2)CCCC1.O=C([O-])C(O)C(O)C(=O)O.O=C([O-])C(O)C(O)C(=O)O`, the cytotoxicity call is “inactive”.
The entry for `CNC(=O)[C@H]1C[C@@H]2CN(c3ncc(F)cn3)C[C@H]1O2` is “inactive”.
Take `N=C(N=C(N)N)NCCc1ccccc1`: the cytotoxicity call was “inactive”.
The entry for `Cc1noc(C)c1NC(=O)N(C)C[C@H]1OCCCC[C@@H](C)Oc2ccc(NS(=O)(=O)c3ccccc3)cc2C(=O)N([C@@H](C)CO)C[C@H]1C` is “inactive”; for `C[C@H]1CN([C@@H](C)CO)C(=O)c2cc(NC(=O)Nc3cccc4ccccc34)ccc2O[C@H]1CN(C)S(=O)(=O)c1ccccc1` it is “inactive”.
Under `CCOC(=O)c1c[nH]c(=S)[nH]c1=O` stands “inactive”.
Under `O=C(C[C@@H]1C[C@H]2c3cc(NC(=O)C4CCOCC4)ccc3O[C@H]2[C@H](CO)O1)NCc1ccc2c(c1)OCO2` stands “inactive”; under `C[C@H]1CN([C@@H](C)CO)C(=O)Cc2cc(NS(=O)(=O)c3cccs3)ccc2O[C@H]1CN(C)CC1CC1`, “inactive”; under `C[C@H](CO)N1C[C@H](C)[C@@H](CN(C)Cc2ccc(Oc3ccccc3)cc2)OCc2ccccc2-c2c(n(C)c3ccccc23)C1=O`, “inactive”.
`CCC(C)(C)NC(=N)NC#N`: the cytotoxicity call is “inactive”.
The entry for `NNC(=O)CCCCC(=O)NO` is “inactive”; for `CN(C)CCCNC(=O)C[C@H]1CC[C@H]2[C@@H](COC[C@H](O)CN2S(=O)(=O)c2ccccc2)O1` it is “inactive”; for `COc1ccc(S(=O)(=O)N(C)C[C@H]2Oc3ccc(NC(=O)NC(C)C)cc3CC(=O)N([C@H](C)CO)C[C@@H]2C)cc1` it is “inactive”.
Under `C[C@H](NC(=O)C[C@H]1C=C[C@H](NC(=O)CN2CCOCC2)[C@@H](CO)O1)c1ccccc1` stands “inactive”; under `C=CCNC(=O)[C@@H]1[C@H]2C(=O)O[C@H](c3ccccc3)[C@H](c3ccccc3)N2[C@H](c2ccc(O)cc2)[C@@]12C(=O)Nc1ccc(C#CC3=CCCCC3)cc12`, “inactive”.
Consider `C[C@H](CO)N1C[C@H](C)[C@H](CN(C)S(=O)(=O)c2ccccc2)Oc2ccc(NC(=O)C3CC3)cc2CC1=O`, for which the cytotoxicity call was “inactive”.
The entry for `O=C(C[C@@H]1C=C[C@H](NC(=O)c2ccc3c(c2)OCO3)[C@H](CO)O1)NCc1ccc(Oc2ccccc2)cc1` is “inactive”.
The entry for `COc1ccc(-c2cc(=O)c3c(O)cc(O[C@@H]4O[C@H](CO[C@@H]5O[C@@H](C)[C@H](O)[C@@H](O)[C@H]5O)[C@@H](O)[C@H](O)[C@H]4O)cc3o2)cc1O` is “inactive”.
Under `COc1ccc([Si](C)(C)[C@H]2[C@H](CCn3cc([C@H](O)c4ccccc4)nn3)O[C@@]3(C(=O)N(c4ccccc4)c4ccccc43)[C@@H]2C)cc1` stands “inactive”; under `CC(C)C#Cc1cnc2c(c1)C(=O)N([C@H](C)CO)C[C@@H](C)[C@@H](CN(C)S(=O)(=O)c1cn(C)cn1)O2`, “inactive”.
